{"source": "paper PMC4336329", "about": "(PLoS ONE, 2015)", "note": "Among all 310,000 compounds or so, about 14,000 (4.5%) showed an effect of 50% or more. The effect is printed as a negative number. The list shows a part of the results."}
{"molecular_target": "human ether-à-go-go-related gene (hERG) potassium channel (human, UniProt Q12809)", "sequence (Q12809 whole entry, looked up)": "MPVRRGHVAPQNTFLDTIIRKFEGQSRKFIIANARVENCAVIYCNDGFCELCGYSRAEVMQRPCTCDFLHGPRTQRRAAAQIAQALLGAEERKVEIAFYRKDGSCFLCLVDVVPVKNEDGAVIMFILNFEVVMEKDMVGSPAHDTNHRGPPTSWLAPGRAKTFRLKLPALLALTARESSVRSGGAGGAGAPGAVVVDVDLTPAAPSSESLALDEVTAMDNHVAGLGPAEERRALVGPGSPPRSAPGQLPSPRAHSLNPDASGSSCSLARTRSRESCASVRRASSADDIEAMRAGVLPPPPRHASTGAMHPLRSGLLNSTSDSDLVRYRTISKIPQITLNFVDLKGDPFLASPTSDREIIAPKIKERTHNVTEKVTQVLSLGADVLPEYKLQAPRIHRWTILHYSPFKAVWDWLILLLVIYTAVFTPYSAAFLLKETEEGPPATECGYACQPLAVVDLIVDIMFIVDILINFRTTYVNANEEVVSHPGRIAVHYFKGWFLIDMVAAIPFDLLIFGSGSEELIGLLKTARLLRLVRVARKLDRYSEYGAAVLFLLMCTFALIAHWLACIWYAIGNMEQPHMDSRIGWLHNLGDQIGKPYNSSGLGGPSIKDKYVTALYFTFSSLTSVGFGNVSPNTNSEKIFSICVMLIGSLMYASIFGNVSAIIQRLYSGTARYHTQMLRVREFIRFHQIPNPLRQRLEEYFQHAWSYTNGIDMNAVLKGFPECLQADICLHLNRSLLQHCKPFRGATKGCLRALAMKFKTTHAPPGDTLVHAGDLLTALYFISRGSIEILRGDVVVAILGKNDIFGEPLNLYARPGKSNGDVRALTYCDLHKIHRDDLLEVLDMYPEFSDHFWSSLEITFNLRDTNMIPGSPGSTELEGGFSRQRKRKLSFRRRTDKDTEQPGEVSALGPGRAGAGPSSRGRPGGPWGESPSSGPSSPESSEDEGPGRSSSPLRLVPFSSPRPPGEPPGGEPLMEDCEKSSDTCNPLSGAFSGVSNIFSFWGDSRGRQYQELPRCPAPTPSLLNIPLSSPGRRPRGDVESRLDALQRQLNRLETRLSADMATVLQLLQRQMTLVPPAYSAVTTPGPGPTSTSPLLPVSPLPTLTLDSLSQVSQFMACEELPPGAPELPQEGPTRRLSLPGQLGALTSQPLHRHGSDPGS", "experiment": "primary screen, population patch clamp on CHO cells stably expressing hERG", "units": {"hERG current change (%, negative = inhibition) at 10uM": "%"}}
{"compound": "COc1ccccc1C1CC(c2ccc(Cl)cc2)Nc2nc(N)nn21", "note": "(stereo not shown);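 further: peak tail current of the secondary pulse compared with the same well before compound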", "hERG current change (%, negative = inhibition) at 10uM": -45.8}
{"compound": "CCC(C(=O)Nc1cccc(C(F)(F)F)c1)c1ccccc1", "note": "(stereo not shown)", "hERG current change (%, negative = inhibition) at 10uM": 3.89}
{"compound": "CC(/C=C/c1ccccc1)=N\\Nc1nc(-c2ccccc2)cs1", "hERG current change (%, negative = inhibition) at 10uM": -4.71}
{"compound": "O=[N+]([O-])c1ccc(S(=O)(=O)CC2CSc3nc4ccccc4n32)cc1", "note": "(stereo not shown)", "hERG current change (%, negative = inhibition) at 10uM": -12.7}
{"compound": "Cc1ccc(S(=O)(=O)CC#CCOC(=O)c2ccc([N+](=O)[O-])cc2)cc1", "hERG current change (%, negative = inhibition) at 10uM": -7.06}
{"compound": "N#CC1CCCc2c1[nH]c1ccc([N+](=O)[O-])cc21", "note": "(stereo not shown)", "hERG current change (%, negative = inhibition) at 10uM": 12.5}
{"compound": "O=[N+]([O-])c1ccc(-c2cnc(SCc3ccccc3Cl)[nH]2)cc1", "hERG current change (%, negative = inhibition) at 10uM": 0.956}
{"compound": "Cc1cccnc1N1C(=O)c2ccc(C(=O)O)cc2C1=O", "hERG current change (%, negative = inhibition) at 10uM": 12.5}
{"compound": "O=C1NCCc2c1[nH]c1ccccc21", "hERG current change (%, negative = inhibition) at 10uM": -77}
{"compound": "Cc1cc(C)nc(NC2=NCCN2C(=S)Nc2c(C)cccc2C)n1", "hERG current change (%, negative = inhibition) at 10uM": -27.7}
{"compound": "CN(CC(=O)Nc1ccccc1Cl)C(=O)c1cc(C2CC2)nn1-c1ccccc1", "hERG current change (%, negative = inhibition) at 10uM": -18.1}
{"compound": "Cc1ccc(C2OC3=C(C(=O)CC(C)(C)C3)C(N)=C2C#N)o1", "note": "(stereo not shown)", "hERG current change (%, negative = inhibition) at 10uM": 7.31}
{"compound": "S=C1NC[C@H](Cc2ccccc2)N1CCCCC1CCCCC1", "hERG current change (%, negative = inhibition) at 10uM": 4.71}
{"compound": "Cc1nc(CC(=O)Nc2nccs2)cs1", "hERG current change (%, negative = inhibition) at 10uM": -4.9}
{"compound": "COc1ccc(-c2cn(CCO)c(-c3ccncc3)n2)cc1", "hERG current change (%, negative = inhibition) at 10uM": 7}
{"compound": "COc1ccc(-c2cc(C)nc(SCC(=O)c3cccc([N+](=O)[O-])c3)n2)cc1", "hERG current change (%, negative = inhibition) at 10uM": 0.439}
{"compound": "CN(C(=O)COc1ccccc1C(=O)NCCOc1ccccc1)c1ccccc1", "hERG current change (%, negative = inhibition) at 10uM": -9.86}
{"compound": "Cc1c(C(=O)Nc2ccc(Br)cc2)cnn1C", "hERG current change (%, negative = inhibition) at 10uM": -21.8}
{"compound": "CC(C)(C)c1nnc(NC(=O)Nc2ccc(Cl)cc2)s1", "hERG current change (%, negative = inhibition) at 10uM": 13.6}
{"compound": "Oc1cc(Cl)cc(Cl)c1Cl", "hERG current change (%, negative = inhibition) at 10uM": 8.5}
{"compound": "CCCN(C(=O)CSc1nnnn1-c1ccccc1OC)C1CCS(=O)(=O)C1", "note": "(stereo not shown)", "hERG current change (%, negative = inhibition) at 10uM": -20.7}
{"compound": "COc1ccc(CNC(=O)Cn2nc(C)n3cccc3c2=O)cc1", "hERG current change (%, negative = inhibition) at 10uM": -1}
{"compound": "Cc1nc2ccccc2c2c1C(=O)N(C(C)C)C2=O", "hERG current change (%, negative = inhibition) at 10uM": 0.173}
{"compound": "Cc1ccc(C)n1-n1c(C)nc2sc(-c3ccccc3)cc2c1=O", "hERG current change (%, negative = inhibition) at 10uM": 13.6}
{"compound": "CC(=O)c1cnc2nc(C)nn2c1C", "hERG current change (%, negative = inhibition) at 10uM": 6.72}
{"compound": "O=C(Nc1ccc(F)cc1)Oc1ccccc1N1CCOCC1", "hERG current change (%, negative = inhibition) at 10uM": 18.2}
{"compound": "CCOC(=O)Cn1nnnc1CN(Cc1cccs1)Cc1cc2cc(C)ccc2[nH]c1=O", "hERG current change (%, negative = inhibition) at 10uM": -17}
{"compound": "CCOC(=O)N1CCC(NC(=O)c2csc3c2CCCC3)CC1", "hERG current change (%, negative = inhibition) at 10uM": -1.64}
{"compound": "COc1ccc2[nH]c3c(=O)n(N)c(C)nc3c2c1", "hERG current change (%, negative = inhibition) at 10uM": 0.621}
{"compound": "NS(=O)(=O)c1ccc(CCNC(=O)c2cccnc2)cc1", "hERG current change (%, negative = inhibition) at 10uM": 8.2}
{"compound": "Cc1cc2c(NS(=O)(=O)c3ccc(F)cc3)cccc2nn1", "hERG current change (%, negative = inhibition) at 10uM": 10.9}
{"compound": "CCCCOP(=O)(OCCCC)C1(NS(=O)(=O)c2ccccc2)C=CC(=O)c2ccccc21", "note": "(stereo not shown)", "hERG current change (%, negative = inhibition) at 10uM": -9.69}
{"compound": "Fc1ccccc1NC(=S)N1CCN(Cc2ccc3c(c2)OCO3)CC1", "hERG current change (%, negative = inhibition) at 10uM": -1.3}
{"compound": "CCOC(=O)c1c(C)[nH]c(C(=O)C(C)N2CCCC2)c1C", "note": "(stereo not shown)", "hERG current change (%, negative = inhibition) at 10uM": 8.52}
{"compound": "O=C(Nc1ccc(Oc2ccccc2)nc1)C1CCCCN1Cc1ccc(O)cc1", "note": "(stereo not shown)", "hERG current change (%, negative = inhibition) at 10uM": -25.2}
{"compound": "O=C1SC(SCc2ccccc2)=N/C1=C\\c1ccc(C(=O)O)cc1", "hERG current change (%, negative = inhibition) at 10uM": 27.1}
{"compound": "O=C(Nc1nnc(Cc2ccc(Cl)cc2)s1)C1CCCO1", "note": "(stereo not shown)", "hERG current change (%, negative = inhibition) at 10uM": -2.13}
{"compound": "CCCCC(=O)N/N=C/c1c(O)n(-c2cccc3ccccc23)c(=O)[nH]c1=O", "hERG current change (%, negative = inhibition) at 10uM": 9.6}
{"compound": "O=C1CC(c2ccc(F)cc2)Sc2nc(C34CC5CC(CC(C5)C3)C4)nn21", "note": "(stereo not shown)", "hERG current change (%, negative = inhibition) at 10uM": 15.1}
{"compound": "CCCOc1ccc(N2CC(C(=O)Nc3ccccc3F)CC2=O)cc1", "note": "(stereo not shown)", "hERG current change (%, negative = inhibition) at 10uM": -3.15}
{"compound": "COC(=O)c1ccccc1NC(=O)NCc1c(C)nn(C)c1C", "hERG current change (%, negative = inhibition) at 10uM": 21.9}
{"compound": "O=[N+]([O-])c1ccc(O)c(/C=N/NC(=S)Nc2ccc(Cl)cc2Cl)c1", "hERG current change (%, negative = inhibition) at 10uM": 48.5}
{"compound": "CCN1CCn2c3c(c4cc(Br)ccc42)CCCC31.Cl", "note": "(stereo not shown)", "hERG current change (%, negative = inhibition) at 10uM": -11}
{"compound": "N/C(=N\\OC(=O)c1ccc(=O)n(Cc2ccc(Cl)cc2)c1)c1ccccn1", "hERG current change (%, negative = inhibition) at 10uM": -33.2}
{"compound": "Nc1cc(=O)[nH]c(=S)n1-c1cccc(C(F)(F)F)c1", "hERG current change (%, negative = inhibition) at 10uM": 20.1}
{"compound": "CCC(C(=O)OCC(=O)Nc1ccc(C(=O)Nc2ccc(OC)cc2)cc1)c1ccccc1", "note": "(stereo not shown)", "hERG current change (%, negative = inhibition) at 10uM": -7.87}
